In the supplement of paper PMC4604168 (melanoma cell lines) one finds cell count data, which are given here for 25 compounds.

This is one part of the list. Single values are uncertain, as repeats are few or missing.

Common to all, as to experiment: cell count relative to DMSO control; melanoma cells; higher = more viable cells
Common to all, as to details: library dose: low library concentration; 72 h

Assay [1] concerns WM115.
The subject of assay [2] is WM1716.
The subject of assay [3] is WM1745.
For assay [4], the system named is WM3526.
Assay [5] deals with WM3619.
In assay [6] the test system is WM451Lu.
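Note: cell number obtained by counting DAPI-stained nuclei in high-throughput microscope images with image analysis software, screen run in 1,536-well plates.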

Regarding `CN(C)S(=O)(=O)c1ccc2c(c1)/C(=C/c1cc3c([nH]1)CCCC3)C(=O)N2` + Cc1cc(SCc2sc(-c3ccc(C(F)(F)F)c(F)c3)nc2C)ccc1OCC(=O)O [GW0742] (first compound 0.4 µM, partner dose 2 µM), the cell count is 84.3% in assay [1]; 108% in assay [2]; 69.9% in assay [3]; 96.6% in assay [4]; 101% in assay [5]; 116% in assay [6].

Consider `C=CCNC1=C2C[C@@H](C)C[C@H](OC)[C@H](O)[C@@H](C)/C=C(\C)[C@H](OC(N)=O)[C@@H](OC)/C=C\C=C(/C)C(=O)NC(=CC1=O)C2=O` [Tanespimycin] + C[As](C)SC[C@H](NC(=O)CC[C@H](N)C(=O)O)C(=O)NCC(=O)O [Darinaparsin] (first compound 0.002 µM, partner dose 0.4 µM), for which the cell count in assay [1] came out at 77.9%; in assay [2] it was 97%; in assay [3], 70%; in assay [4], 93.7%; in assay [5], 83.4%; in assay [6], 89%.

With `Nc1nc(F)nc2c1ncn2[C@@H]1O[C@H](CO)[C@@H](O)[C@@H]1O` [fludarabine] + C[As](C)SC[C@H](NC(=O)CC[C@H](N)C(=O)O)C(=O)NCC(=O)O [Darinaparsin] (first compound 0.2 µM, partner dose 0.4 µM), the cell count in assay [1] was determined as 82.7%; in assay [2], 97.7%; in assay [3], 114%; in assay [4], 22.5%; in assay [5], 91.9%; in assay [6], 45.2%.

As for `COc1ccc(C2=N[C@@H](c3ccc(Cl)cc3)[C@@H](c3ccc(Cl)cc3)N2C(=O)N2CCNC(=O)C2)c(OC(C)C)c1` [Nutlin-3] + O=C(Oc1ccc([N+](=O)[O-])cc1)N1CCC(C(O)(c2ccc3c(c2)OCO3)c2ccc3c(c2)OCO3)CC1 [JZL184] (first compound 0.1 µM, partner dose 1 µM), the cell count in assay [1] came out at 78.6%; in assay [2], 70.6%; in assay [3], 97.5%; in assay [4], 87.1%; in assay [5], 86.3%; in assay [6] it was 102%.

With `O=C(Oc1ccc([N+](=O)[O-])cc1)N1CCC(C(O)(c2ccc3c(c2)OCO3)c2ccc3c(c2)OCO3)CC1` + CC(C)CCN1c2nc(Nc3cc(F)c(O)c(F)c3)ncc2N(C)C(=O)C1C [BID1870] (first compound 1 µM, partner dose 0.2 µM), the cell count in assay [1] stood at 98%; in assay [2], 93.1%; in assay [3], 104%; in assay [4], 95.6%; in assay [5] it was 118%; in assay [6], 109%.

For the compound `Cc1ccc(Nc2nccc(N(C)c3ccc4c(C)n(C)nc4c3)n2)cc1S(N)(=O)=O` [Pazopanib] + C/C(O)=C(\C#N)C(=O)Nc1cc(Br)ccc1Br [LFM-A13] (first compound 0.4 µM, partner dose 2 µM), the cell count worked out at 99.3% in assay [1]; 77.1% in assay [2]; 101% in assay [3]; 105% in assay [4]; 91.7% in assay [5]; 111% in assay [6].

Take `CN(NC(=O)CC(=O)NN(C)C(=S)c1ccccc1)C(=S)c1ccccc1` + C/C(O)=C(\C#N)C(=O)Nc1cc(Br)ccc1Br [LFM-A13] (first compound 0.006 µM, partner dose 2 µM): the cell count in assay [1] was determined as 75.8%; in assay [2] it was 64.3%; in assay [3], 9.86%; in assay [4] it was 102%; in assay [5], 25.1%; in assay [6] it was 99.8%.

In the case of `Cn1c(=O)n(-c2ccc(C(C)(C)C#N)cc2)c2c3cc(-c4cnc5ccccc5c4)ccc3ncc21` + N.N.[Cl][Pt][Cl] [cisplatin] (first compound 0.004 µM, partner dose 1.6 µM), the cell count came to 94.7% in assay [1]; 86.3% in assay [2]; 104% in assay [3]; 91.3% in assay [4]; 90.5% in assay [5]; 102% in assay [6].

As for `Cn1cnc2c(F)c(Nc3ccc(Br)cc3Cl)c(C(=O)NOCCO)cc21` [selumetinib] + C[C@]12O[C@H](C[C@]1(O)CO)n1c3ccccc3c3c4c(c5c6ccccc6n2c5c31)CNC4=O [Lestaurtinib] (first compound 0.015 µM, partner dose 0.004 µM), the cell count in assay [1] was 89.7%; in assay [2], 123%; in assay [3] it was 82.1%; in assay [4], 70.3%; in assay [5] it was 68%; in assay [6] it was 98.7%.

With `CCCS(=O)(=O)Nc1ccc(F)c(C(=O)c2c[nH]c3ncc(Cl)cc23)c1F` + C[As](C)SC[C@H](NC(=O)CC[C@H](N)C(=O)O)C(=O)NCC(=O)O [Darinaparsin] (first compound 0.08 µM, partner dose 0.4 µM), the cell count stood at 96.6% in assay [1]; 109% in assay [2]; 106% in assay [3]; 79.6% in assay [4]; 90.9% in assay [5]; 111% in assay [6].

Take `Cc1cc(N2CCOCC2)cc2[nH]c(-c3c(NC[C@@H](O)c4cccc(Cl)c4)cc[nH]c3=O)nc12` + C/C(O)=C(\C#N)C(=O)Nc1cc(Br)ccc1Br [LFM-A13] (first compound 0.2 µM, partner dose 2 µM): the cell count came to 102% in assay [1]; 104% in assay [2]; 81% in assay [3]; 106% in assay [4]; 119% in assay [5]; 130% in assay [6].

Take `NC(=O)c1ccc(N(C(N)=O)c2c(F)cccc2F)nc1-c1ccc(F)cc1F` + N.N.[Cl][Pt][Cl] [cisplatin] (first compound 0.4 µM, partner dose 1.6 µM): the cell count in assay [1] was found to be 90.6%; in assay [2], 89.8%; in assay [3], 88.1%; in assay [4], 84.3%; in assay [5], 109%; in assay [6], 115%.

Regarding `CCCS(=O)(=O)Nc1ccc(F)c(C(=O)c2c[nH]c3ncc(Cl)cc23)c1F` + O=C(Oc1ccc([N+](=O)[O-])cc1)N1CCC(C(O)(c2ccc3c(c2)OCO3)c2ccc3c(c2)OCO3)CC1 [JZL184] (first compound 0.08 µM, partner dose 1 µM), the cell count in assay [1] is 85.8%; in assay [2] it was 104%; in assay [3], 109%; in assay [4], 50.5%; in assay [5], 98.9%; in assay [6], 108%.

For the compound `COc1cc([C@@H]2c3cc4c(cc3[C@@H](O[C@@H]3O[C@@H]5CO[C@@H](C)O[C@H]5[C@H](O)[C@H]3O)[C@H]3COC(=O)[C@H]23)OCO4)cc(OC)c1O` [etoposide] + N.N.[Cl][Pt][Cl] [cisplatin] (first compound 0.02 µM, partner dose 1.6 µM), the cell count in assay [1] is 84.2%; in assay [2], 87.2%; in assay [3], 99.8%; in assay [4] it was 83.6%; in assay [5] it was 75%; in assay [6], 85.6%.

Take `Cc1ccc(Nc2nccc(N(C)c3ccc4c(C)n(C)nc4c3)n2)cc1S(N)(=O)=O` [Pazopanib] + N.N.[Cl][Pt][Cl] [cisplatin] (first compound 0.4 µM, partner dose 1.6 µM): the cell count is 105% in assay [1]; 94% in assay [2]; 87.5% in assay [3]; 87.5% in assay [4]; 90.3% in assay [5]; 81.5% in assay [6].

Regarding `CNC(=O)c1cc(Oc2ccc(NC(=O)Nc3ccc(Cl)c(C(F)(F)F)c3)cc2)ccn1` [sorafenib] + Cc1cc(SCc2sc(-c3ccc(C(F)(F)F)c(F)c3)nc2C)ccc1OCC(=O)O [GW0742] (first compound 0.4 µM, partner dose 2 µM), the cell count in assay [1] was determined as 106%; in assay [2] it was 94.9%; in assay [3], 71.5%; in assay [4] it was 85.2%; in assay [5], 109%; in assay [6] it was 99%.

With `O=c1[nH]nc(Sc2ncc([N+](=O)[O-])s2)n1-c1ccc2c(c1)OCCO2` + Cc1cc(SCc2sc(-c3ccc(C(F)(F)F)c(F)c3)nc2C)ccc1OCC(=O)O [GW0742] (first compound 0.2 µM, partner dose 2 µM), the cell count in assay [1] is 92.4%; in assay [2], 128%; in assay [3], 109%; in assay [4], 113%; in assay [5], 143%; in assay [6], 113%.

As for `O=C(Nc1ccccc1)c1cc([N+](=O)[O-])ccc1Cl` + Cc1cc(SCc2sc(-c3ccc(C(F)(F)F)c(F)c3)nc2C)ccc1OCC(=O)O [GW0742] (first compound 2 µM, partner dose 2 µM), the cell count in assay [1] worked out at 92.8%; in assay [2], 87.5%; in assay [3], 93.8%; in assay [4], 83.6%; in assay [5], 103%; in assay [6], 198%.

For the compound `Cc1ccc(NC(=O)c2cccc(N(C)C)c2)cc1NC(=O)c1ccc(O)cc1` + C/C(O)=C(\C#N)C(=O)Nc1cc(Br)ccc1Br [LFM-A13] (first compound 2 µM, partner dose 2 µM), the cell count was found to be 94.9% in assay [1]; 99.5% in assay [2]; 82.6% in assay [3]; 92.3% in assay [4]; 97% in assay [5]; 115% in assay [6].

Turning to `Cc1cc(SCc2sc(-c3ccc(C(F)(F)F)c(F)c3)nc2C)ccc1OCC(=O)O` + O=C1NC(=O)/C(=C/c2ccc(-c3ccc(F)cc3O)o2)S1 [AS252424] (first compound 2 µM, partner dose 1 µM), the cell count in assay [1] was found to be 83.9%; in assay [2] it was 88.8%; in assay [3], 86.1%; in assay [4] it was 91.5%; in assay [5] it was 102%; in assay [6] it was 115%.

In the case of `N#Cc1c(O)c2c(-c3ccc(-c4ccccc4O)cc3)csc2[nH]c1=O` + C/C(O)=C(\C#N)C(=O)Nc1cc(Br)ccc1Br [LFM-A13] (first compound 2 µM, partner dose 2 µM), the cell count in assay [1] turned out to be 85.8%; in assay [2], 109%; in assay [3], 95.5%; in assay [4], 81.5%; in assay [5] it was 87.9%; in assay [6], 87.8%.

Turning to `C/C(O)=C(\C#N)C(=O)Nc1cc(Br)ccc1Br` + Cn1cc(/C=C2\C(=O)Nc3cccnc32)c2ccccc21 [GW441756] (first compound 2 µM, partner dose 0.4 µM), the cell count came to 94.4% in assay [1]; 117% in assay [2]; 80.5% in assay [3]; 89.9% in assay [4]; 124% in assay [5]; 104% in assay [6].

With `N#Cc1c(O)c2c(-c3ccc(-c4ccccc4O)cc3)csc2[nH]c1=O` + Cc1cc(SCc2sc(-c3ccc(C(F)(F)F)c(F)c3)nc2C)ccc1OCC(=O)O [GW0742] (first compound 2 µM, partner dose 2 µM), the cell count in assay [1] came to 98.7%; in assay [2], 98.6%; in assay [3] it was 85.5%; in assay [4], 80.2%; in assay [5], 105%; in assay [6] it was 50.2%.

Consider `O=S(=O)(c1ccccc1)N(CC(F)(F)F)c1ccc(C(O)(C(F)(F)F)C(F)(F)F)cc1` + Cc1cc(SCc2sc(-c3ccc(C(F)(F)F)c(F)c3)nc2C)ccc1OCC(=O)O [GW0742] (first compound 1.4 µM, partner dose 2 µM), for which the cell count turned out to be 93.1% in assay [1]; 101% in assay [2]; 72% in assay [3]; 87.4% in assay [4]; 140% in assay [5]; 120% in assay [6].

`CC(=O)O[C@@]12CO[C@@H]1C[C@H](O)[C@@]1(C)C(=O)[C@H](O)C3=C(C)[C@@H](OC(=O)[C@H](O)[C@@H](NC(=O)OC(C)(C)C)c4ccccc4)C[C@@](O)([C@@H](OC(=O)c4ccccc4)[C@H]21)C3(C)C` [Docetaxel] + Cc1cc(SCc2sc(-c3ccc(C(F)(F)F)c(F)c3)nc2C)ccc1OCC(=O)O [GW0742] (first compound 0.0001 µM, partner dose 2 µM): the cell count in assay [1] turned out to be 61.9%; in assay [2], 37.5%; in assay [3], 58.6%; in assay [4], 44.9%; in assay [5], 52.1%; in assay [6], 62.8%.
